In article doi:10.1101/2025.01.21.634180:
Results are given in words; binding and its absence hold for the method and conditions named. For part of these data: In cells and extracts the contact can be indirect. Some results given as binding are weak or reduced against the parent protein; the word gives no strength. For part of these data: Tags and fused reporters may be left off the sequences shown. Each block holds one molecule with its values, some of them ahead of it.

Protein sequences, listed by entry. Tags and fused reporters are not part of them. Lines headed by an entry give the natural chain unless they say otherwise; changes in a name come on top. Residues count along the entry.
UniProt Q9HC29: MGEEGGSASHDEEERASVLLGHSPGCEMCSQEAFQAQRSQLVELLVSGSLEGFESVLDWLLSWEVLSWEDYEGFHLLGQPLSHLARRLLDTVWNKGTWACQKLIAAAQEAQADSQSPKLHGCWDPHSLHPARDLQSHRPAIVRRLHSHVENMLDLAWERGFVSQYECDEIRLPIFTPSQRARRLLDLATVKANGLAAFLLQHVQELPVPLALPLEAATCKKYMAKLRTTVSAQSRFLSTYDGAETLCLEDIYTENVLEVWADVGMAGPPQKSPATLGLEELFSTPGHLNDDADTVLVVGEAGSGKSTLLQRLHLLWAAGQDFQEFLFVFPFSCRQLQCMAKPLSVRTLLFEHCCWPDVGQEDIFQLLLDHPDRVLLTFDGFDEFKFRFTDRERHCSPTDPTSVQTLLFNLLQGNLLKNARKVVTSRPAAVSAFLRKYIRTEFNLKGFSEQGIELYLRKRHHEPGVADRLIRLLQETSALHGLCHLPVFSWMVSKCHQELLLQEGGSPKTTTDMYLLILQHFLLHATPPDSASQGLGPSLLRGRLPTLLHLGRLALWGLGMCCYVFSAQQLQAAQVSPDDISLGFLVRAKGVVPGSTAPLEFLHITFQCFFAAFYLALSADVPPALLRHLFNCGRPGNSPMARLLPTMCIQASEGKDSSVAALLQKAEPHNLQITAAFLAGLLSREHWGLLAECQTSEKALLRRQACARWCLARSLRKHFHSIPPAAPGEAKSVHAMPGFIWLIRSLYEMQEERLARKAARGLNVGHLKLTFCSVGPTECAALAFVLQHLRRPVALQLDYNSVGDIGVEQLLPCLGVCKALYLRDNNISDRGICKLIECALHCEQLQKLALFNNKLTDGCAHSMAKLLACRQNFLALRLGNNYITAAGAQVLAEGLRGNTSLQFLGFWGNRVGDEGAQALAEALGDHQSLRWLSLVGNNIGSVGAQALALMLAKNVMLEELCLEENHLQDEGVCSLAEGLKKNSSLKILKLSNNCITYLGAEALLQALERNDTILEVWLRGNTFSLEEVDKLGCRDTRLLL
GST-NOD2-LRR (pGEX-6P-2-NOD2-LRR, aa 744–1040): residues 744-1040 of Q9HC29
GST-NOD2-LRR-delΔ (pGEX-6P-2-NOD2-LRR-delΔ, aa 744–1006): residues 744-1006 of Q9HC29

Assays:
[1] = molecular target: T1, pCEFL-GST-GIV-CT (1660–1870), mammalian expression (UniProt Q3V6T2); test: pull-down; GST-GIV-CT (aa 1660–1870, pCEFL) pulled down with glutathione beads from lysates of HEK293T cells co-expressing it with WT or mutant HA-NOD2; immunoblotting with anti-HA and anti-GST
T1 sequence: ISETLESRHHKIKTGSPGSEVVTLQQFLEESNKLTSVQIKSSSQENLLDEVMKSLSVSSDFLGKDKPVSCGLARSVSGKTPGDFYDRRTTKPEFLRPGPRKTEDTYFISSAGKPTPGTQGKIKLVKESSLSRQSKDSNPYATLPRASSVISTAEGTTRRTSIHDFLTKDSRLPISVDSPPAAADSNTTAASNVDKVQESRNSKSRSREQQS

[2] = molecular target: GIV-FLAG (CMV14-p3X FLAG-GIV WT, full length) (UniProt Q3V6T2); test: co-IP; HEK293T cells co-expressing GIV-FLAG and HA-NOD2 (or its variants, or HA-NOD1), with or without 10 μg/ml MDP for 1, 3 and 6 h; anti-HA mAb or anti-FLAG M2 and protein G Sepharose, 4°C; immunoblotting
[3] = molecular target: GST-NOD2-LRR (pGEX-6P-2-NOD2-LRR, aa 744–1040) (human) (UniProt Q9HC29); test: pull-down; purified GST-NOD2-LRR proteins immobilised on glutathione Sepharose beads, incubated with purified His-GIV-CT in binding buffer (50 mM Tris-HCl pH 7.4, 100 mM NaCl, 0.4% Nonidet P-40, 10 mM MgCl2, 5 mM EDTA, 2 mM DTT), 4 h at 4°C; both purified
[4] = molecular target: GST-NOD2-LRR-delΔ (pGEX-6P-2-NOD2-LRR-delΔ, aa 744–1006) (human) (UniProt Q9HC29); test: as above

binding [1]: binds
binding [2]: binds
Molecule: HA-tagged NOD2-WT (from UniProt Q9HC29 1-1040)

binding [3]: binds
binding [4]: no binding
B1: His-GIV-CT (aa 1660–1870) (pET-28b-GIV-CT-WT) (domain or fragment, UniProt Q3V6T2 1660-1870)
chain: T1 sequence

Second part, the molecule before the results:

Molecule: HA-tagged NOD2-G908R (from UniProt Q9HC29 1-1040)
binding [1]: binds

Molecule: HA-tagged NOD2-R702W (from UniProt Q9HC29 1-1040)
binding [1]: no binding
